According to PubChem BioAssay AID2675 (National Center for Advancing Translational Sciences (NCATS), 2010):
Out of some 280,000 compounds screened, about 100 (0.036%) were called active. This list was built around the results that the source calls inconclusive (neither active nor inactive); the mix of calls is not that of the screen. Calls come from the whole dose curve; as a rule, active = well fitted inhibition curve with a large enough effect in the signal ratio, with a control signal flat (not every such curve was filed as active); inconclusive = small, poorly fitted or top-dose-only effect, or effect the other way, or a change in a side signal; inactive = no such curve, though single readings can be large or run the other way; the % refers to the signal ratio. Where the call is inconclusive, the potency comes from a doubtful curve fit. “Side channel” marks fits to a control or component signal instead of the main read-out.

molecular target: Muscleblind-like protein 1 (Homo sapiens) (UniProt Q9NR56); test: qHTS Assay for Inhibitors of MBNL1-poly(CUG) RNA binding; settings: TR-FRET MBNL1-His/biotin-(CUG)12 binding, 665/545 ratio; series mostly up to 57.5 µM
Method in brief: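 His-tagged MBNL1 binding to biotinylated (CUG)12 RNA was measured by TR-FRET using terbium anti-His antibody (0.055 ng/ul final) and streptavidin-XL665 (5 nM final). Compounds were titrated 92 nM to 58 uM; 60 min at room temperature.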
Potency is the fitted concentration of half-maximal effect; tags give direction and shape of the fitted curve or compound fluorescence and quenching.

Sequence of UniProt Q9NR56 (Q9NR56 whole entry, looked up): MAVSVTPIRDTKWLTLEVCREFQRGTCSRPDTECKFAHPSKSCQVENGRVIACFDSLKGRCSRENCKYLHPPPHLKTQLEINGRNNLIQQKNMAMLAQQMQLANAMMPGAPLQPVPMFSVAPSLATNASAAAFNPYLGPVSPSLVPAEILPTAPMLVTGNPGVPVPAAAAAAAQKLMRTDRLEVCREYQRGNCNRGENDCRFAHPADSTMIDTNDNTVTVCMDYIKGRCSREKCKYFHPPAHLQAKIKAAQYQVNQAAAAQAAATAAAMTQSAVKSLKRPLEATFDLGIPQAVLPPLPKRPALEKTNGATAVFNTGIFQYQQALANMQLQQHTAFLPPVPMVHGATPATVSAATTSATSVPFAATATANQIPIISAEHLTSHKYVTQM

| SMILES | Potency |
| --- | --- |
| O=C(CSc1nnnn1-c1ccc(F)cc1)NC1CCCCC1 | inactive |
| Cc1cc(C)cc(Nc2cc(=O)n(C3CCCCC3)c(=O)[nH]2)c1 | inactive |
| CCN(CC)CCCNc1nc2cc(OC)c(OC)cc2c2nc(-c3ccccc3)nn12 | inactive |
| CNC(=O)/C(=C\c1ccc([N+](=O)[O-])cc1)NC(C)=O | inconclusive: 8.91 µM [quencher, side channel, partial curve] |
| Cc1[nH]c2ccccc2c1N=Nc1cccc(C(=O)O)c1 | inconclusive: 20 µM [quencher, side channel, single point] |
| COc1ccc(CCN2C(=O)C(C)=C(C)C2=O)cc1OC | inconclusive: 22.4 µM [quencher, side channel, partial curve] |
| Cc1ccc(NC(=O)CCn2nnc3ccccc32)c(C)c1 | inconclusive: 126 µM [inhibitor, single point] |
| Cc1c(Cl)cccc1NC(=O)Nc1ccc(C(=O)N2CCCC2)cc1 | inconclusive: 31.6 µM [fluorescent, side channel, partial curve, poor fit] |
| O=C(CN1CCN(c2ccccc2)CC1)Nc1nccs1 | inactive |
| COc1ccccc1CNC(=O)C(=O)Nc1nccs1 | inconclusive: 12.6 µM [inhibitor, single point] |
| CCc1nnc(NC(=O)CCC(=O)Nc2ccc(C)cc2)s1 | inconclusive: 0.794 µM [fluorescent, side channel, single point] |
| O=C(NCC1CCCCC1)c1cc([N+](=O)[O-])ccc1N1CCOCC1 | inconclusive: 28.2 µM [quencher, side channel, single point] |
| N=c1ccn(Cc2ccc([N+](=O)[O-])cc2)cc1 | inconclusive: 11.2 µM [quencher, partial curve] |
| O=C(CCS(=O)(=O)Cc1ccccc1)N1CCN(c2ccc([N+](=O)[O-])cc2)CC1 | inconclusive: 7.08 µM [quencher, side channel, partial curve] |
| CC(=O)c1c(C)nc2nonc2c1N | inconclusive: 14.1 µM [quencher, partial curve] |
| CC(C)c1ccc(/C=C2\SC(=O)N(CC(=O)NCCCn3ccnc3)C2=O)cc1 | inconclusive: 14.1 µM [quencher, side channel, partial curve] |
| O=C1OC(c2ccccc2)=C/C1=C/N1CCCCC1 | inconclusive: 15.8 µM [quencher, side channel, partial curve] |
| O=C(CSc1nccn(-c2cccc(F)c2)c1=O)Nc1ccc(Cl)cc1F | inactive |
